Assay results: paper PMC6914800
Numbering of substitutions follows the chain as printed. Results are given in words; binding and its absence hold for the method and conditions named. For some assays here: In cells and extracts the contact can be indirect. Some results given as binding are weak or reduced against the parent protein; the word gives no strength. For some assays here: Tags and fused reporters may be left off the sequences shown. One block for each substance: values may come before it.

The chains behind the UniProt entries cited, without tags or fusion partners. Residues count along the entry.
UniProt P08581, residues 25-1390: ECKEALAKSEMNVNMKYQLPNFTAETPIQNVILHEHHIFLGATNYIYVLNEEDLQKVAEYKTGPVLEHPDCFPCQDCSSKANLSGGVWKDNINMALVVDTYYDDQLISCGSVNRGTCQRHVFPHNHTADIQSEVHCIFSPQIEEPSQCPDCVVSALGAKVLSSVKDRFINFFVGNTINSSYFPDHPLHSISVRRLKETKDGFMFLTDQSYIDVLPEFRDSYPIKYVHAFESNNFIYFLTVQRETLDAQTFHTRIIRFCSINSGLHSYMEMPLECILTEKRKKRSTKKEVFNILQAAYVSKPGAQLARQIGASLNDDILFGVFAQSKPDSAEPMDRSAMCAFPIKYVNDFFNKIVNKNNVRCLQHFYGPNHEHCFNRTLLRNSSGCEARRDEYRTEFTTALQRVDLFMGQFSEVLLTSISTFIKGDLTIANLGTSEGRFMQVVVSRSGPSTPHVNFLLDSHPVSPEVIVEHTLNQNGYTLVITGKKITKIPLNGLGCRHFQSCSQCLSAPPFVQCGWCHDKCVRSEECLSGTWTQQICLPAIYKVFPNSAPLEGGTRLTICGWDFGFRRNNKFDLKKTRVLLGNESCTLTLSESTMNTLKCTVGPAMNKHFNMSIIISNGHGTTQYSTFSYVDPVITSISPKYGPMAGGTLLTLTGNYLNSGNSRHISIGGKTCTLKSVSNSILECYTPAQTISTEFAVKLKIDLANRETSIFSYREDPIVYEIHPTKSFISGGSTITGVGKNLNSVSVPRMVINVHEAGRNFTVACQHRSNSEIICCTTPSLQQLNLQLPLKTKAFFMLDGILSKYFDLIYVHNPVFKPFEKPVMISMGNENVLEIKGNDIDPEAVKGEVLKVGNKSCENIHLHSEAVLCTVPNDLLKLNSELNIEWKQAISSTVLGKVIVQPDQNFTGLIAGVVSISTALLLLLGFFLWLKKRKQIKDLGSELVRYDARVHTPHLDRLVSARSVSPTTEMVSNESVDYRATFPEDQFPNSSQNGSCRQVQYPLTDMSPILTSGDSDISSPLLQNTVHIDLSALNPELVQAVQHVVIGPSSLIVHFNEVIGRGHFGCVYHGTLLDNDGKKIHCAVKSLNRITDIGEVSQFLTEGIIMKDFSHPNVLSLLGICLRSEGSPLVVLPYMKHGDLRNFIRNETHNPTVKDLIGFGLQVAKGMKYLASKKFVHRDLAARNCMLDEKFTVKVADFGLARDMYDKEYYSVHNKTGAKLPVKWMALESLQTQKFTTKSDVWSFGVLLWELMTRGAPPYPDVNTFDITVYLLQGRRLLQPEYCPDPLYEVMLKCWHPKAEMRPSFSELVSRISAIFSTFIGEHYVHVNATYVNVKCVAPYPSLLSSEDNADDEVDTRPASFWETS
UniProt P35222: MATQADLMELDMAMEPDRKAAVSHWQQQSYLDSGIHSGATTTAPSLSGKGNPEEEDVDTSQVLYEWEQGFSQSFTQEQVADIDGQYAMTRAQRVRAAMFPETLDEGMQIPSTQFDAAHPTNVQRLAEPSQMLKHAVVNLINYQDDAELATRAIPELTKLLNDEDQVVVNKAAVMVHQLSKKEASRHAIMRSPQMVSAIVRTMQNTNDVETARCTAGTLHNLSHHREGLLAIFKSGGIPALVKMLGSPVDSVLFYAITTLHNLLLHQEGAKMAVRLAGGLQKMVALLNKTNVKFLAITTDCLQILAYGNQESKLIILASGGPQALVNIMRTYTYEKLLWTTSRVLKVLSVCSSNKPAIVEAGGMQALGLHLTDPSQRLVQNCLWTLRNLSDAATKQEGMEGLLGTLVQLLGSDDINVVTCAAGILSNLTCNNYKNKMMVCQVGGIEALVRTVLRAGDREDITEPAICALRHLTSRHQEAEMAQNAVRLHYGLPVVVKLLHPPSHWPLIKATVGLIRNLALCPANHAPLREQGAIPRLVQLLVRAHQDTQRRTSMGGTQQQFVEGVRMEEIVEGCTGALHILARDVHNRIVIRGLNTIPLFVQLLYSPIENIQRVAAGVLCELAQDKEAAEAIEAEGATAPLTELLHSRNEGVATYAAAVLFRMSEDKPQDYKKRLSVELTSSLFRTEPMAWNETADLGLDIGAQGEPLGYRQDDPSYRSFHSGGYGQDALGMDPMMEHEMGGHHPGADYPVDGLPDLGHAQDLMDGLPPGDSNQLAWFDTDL

Experiments:
[1] = target: T1, HA-tagged PSPC1 (wild type) (UniProt Q8WXF1); assay: co-IP; IP/Western of SK-hep1 cells ectopically expressing HA-tagged PSPC1 (wild type or mutants) and/or Flag-tagged PTK6; RIPA buffer (50 mM Tris-Cl pH 8.0, 150 mM NaCl, 1% NP-40), overnight at 4 °C
T1 sequence: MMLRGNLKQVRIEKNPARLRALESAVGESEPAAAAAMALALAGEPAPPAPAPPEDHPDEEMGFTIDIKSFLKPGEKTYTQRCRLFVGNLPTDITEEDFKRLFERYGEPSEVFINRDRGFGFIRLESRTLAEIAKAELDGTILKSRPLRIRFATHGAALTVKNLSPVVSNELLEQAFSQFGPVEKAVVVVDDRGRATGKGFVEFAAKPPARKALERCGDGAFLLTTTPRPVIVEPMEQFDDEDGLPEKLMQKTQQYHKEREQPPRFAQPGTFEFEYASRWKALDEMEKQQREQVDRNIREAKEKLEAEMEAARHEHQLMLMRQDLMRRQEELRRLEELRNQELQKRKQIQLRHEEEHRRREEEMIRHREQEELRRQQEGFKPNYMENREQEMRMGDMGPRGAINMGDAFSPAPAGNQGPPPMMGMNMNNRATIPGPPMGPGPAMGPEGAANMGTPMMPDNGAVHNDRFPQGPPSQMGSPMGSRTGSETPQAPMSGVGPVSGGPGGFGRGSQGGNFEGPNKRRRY

PSPC1-Y383F = target: T2, PSPC1-Y383F (UniProt Q8WXF1); assay: as above
T2 sequence: T1 sequence with Y383F

[2] = target: T1, HA-tagged PSPC1 (wild type); assay: condition: only treatment of the IP complex with calf-intestinal alkaline phosphatase (CIP); co-IP; IP/Western; the IP complex treated with nonspecific calf-intestinal alkaline phosphatase (CIP)
[3] = target: T3, Paraspeckle component 1 (PSPC1), endogenous (human (endogenous in Huh-7)) (UniProt Q8WXF1); assay: co-IP; IP/Western of Huh-7 cells under HGF stimulation (10 ng/ml)
T3 sequence: T1 sequence

[4] = target: T3, Paraspeckle component 1 (PSPC1), endogenous (human (endogenous in Huh-7)); assay: co-IP; IP/Western of endogenous proteins in Huh-7 lysate; RIPA buffer (50 mM Tris-Cl pH 8.0, 150 mM NaCl, 1% NP-40), antibody or control IgG with Protein A/G Sepharose overnight at 4 °C; cells untreated or treated with HGF (10 ng/ml)
[5] = target: Protein tyrosine kinase 6 (PTK6), endogenous (human (endogenous in Huh-7)) (UniProt Q13882); assay: co-IP; IP/Western; with or without the c-Met inhibitor XL-184; cells not given
recombinant GST-PSPC1 = target: T4, recombinant GST-PSPC1 (UniProt Q8WXF1); assay: pull-down; GST-tagged PSPC1 incubated with recombinant PTK6 in GST pulldown buffer (100 mM Tris pH 8.0, 1% NP40, 150 mM NaCl) overnight at 4 °C, washed six times, Western blotting; both purified
T4 sequence: T1 sequence

PSPC1-Y523F = target: T5, PSPC1-Y523F (UniProt Q8WXF1); assay: co-IP; IP/Western of SK-hep1 cells ectopically expressing HA-tagged PSPC1 (wild type or mutants) and/or Flag-tagged PTK6; RIPA buffer (50 mM Tris-Cl pH 8.0, 150 mM NaCl, 1% NP-40), overnight at 4 °C
T5 sequence: T1 sequence with Y523F

binding [1]: binds
binding (PSPC1-Y383F): binds
binding [2]: no binding
Substance: Flag-tagged PTK6 (wild type) (from UniProt Q13882 1-451) (enzyme)

binding [1]: no binding
Substance: PTK6 kinase-dead mutant, PTK6-KM (PTK6-K219M) (from UniProt Q13882 1-451) (enzyme)

binding [4]: binds
Substance: Protein tyrosine kinase 6 (PTK6), endogenous (from UniProt Q13882 1-451) (enzyme)
binding [3]: no binding (condition: under HGF stimulation (10 ng/ml))

binding [5]: binds
Substance: c-Met (from UniProt P08581 25-1390) (receptor)

binding (recombinant GST-PSPC1): binds
Substance: recombinant PTK6 (Thermo-Fisher Scientific) (from UniProt Q13882 1-451) (enzyme)

binding [1]: binds
binding (PSPC1-Y523F): binds
binding [4]: binds
Substance: β-catenin (from UniProt P35222 1-781)
